Laboratory results published in PubChem BioAssay AID1458 (National Center for Advancing Translational Sciences (NCATS), 2008).
The whole screen tested about 210,000 compounds, of which about 5,900 (2.8%) were called active. Inconclusive results, whose numbers are uncertain, are shown with a selection of clear calls. Calls come from the whole dose curve; as a rule, active = well fitted activation curve with a large enough effect; inconclusive = small, poorly fitted or top-dose-only effect; inactive = no such curve, though single readings can be large or run the other way. Potencies of inconclusive entries are doubtful fits and often do not repeat.

assay: qHTS Assay for Enhancers of SMN2 Splice Variant Expression; settings: HEK293 SMN2-luciferase splicing reporter, luminescence, 30-36 h; activity change, positive = activation: at 46.1 µM (top of the series); note: nearly all actives have a fitted effect of over 55% in size; for activity change, positive = activation: % of control where 0% means no effect
How it was run: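 HEK293 cells carry an SMN2 […]–luciferase reporter in which exon 7 inclusion puts luciferase in frame. Cells were plated 10-12 h before compound addition, then incubated 30-36 h at 37C. ONE-Glo luminescence was read; sodium butyrate at 4.5 mM final served as control.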
Potency is the fitted concentration of half-maximal effect; tags give direction and shape of the fitted curve.

Compound | Potency | activity change, positive = activation
Cc1ccc(C(=O)Oc2oc(-c3ccccc3)nc2C=Nc2ccc(N(C)C)cc2)cc1 | active: 8.91 µM | –
CCN1CCN(Cc2ccc(NC(=O)Nc3ccccc3Cl)cc2)CC1 | inconclusive: 7.08 µM [activator, full curve, poor fit] | –
C/C(=C\c1ccccc1)C(=O)Nc1nccs1 | active: 11.2 µM | –
COc1ccc(C)cc1S(=O)(=O)N(C)CC(=O)NC1CCCCC1 | inconclusive: 0.0316 µM [activator, full curve, poor fit] | –
COc1cc(OC)cc(C(=O)NC(=S)Nc2ccc(Cl)c(C(=O)O)c2)c1 | inconclusive: 35.5 µM [activator, single point] | –
C/C(N)=C(/C#N)C(=O)CSc1nnc(Nc2cccc(C)c2)s1 | active: 15.8 µM | –
Clc1nc2ccccc2cc1/C=N/Nc1nc2ccccc2[nH]1 | active: 7.94 µM | –
O=C(CCc1ccccc1)c1ccc2c(c1)OCCCO2 | inconclusive: 14.1 µM [activator, single point] | –
CCN(CC)c1cc(C)c2cc(NC(=O)c3ccc(OC)c(OC)c3)ccc2n1 | inconclusive: 10 µM [activator, partial curve, poor fit] | –
COc1ccc(C2=C(CC(=O)O)C(=O)CC2)cc1 | inconclusive: 0.0089 µM [activator, full curve] | –
COC(=O)c1cc(NS(=O)(=O)c2ccc3c(c2)OCCO3)ccc1Cl | – | inactive: -21.4%
O=[N+]([O-])c1ccc(Nc2cccc(F)c2)nc1 | – | inactive: -15.4%
Cc1ccccc1Nc1ncnc2c1cnn2-c1ccccc1 | active: 11.2 µM | –
O=C(CSc1nc2ccccc2s1)N1c2ccccc2Sc2ccc(Cl)cc21 | – | inactive: -27.9%
O=C(Nc1ccccc1)n1ccc(-c2ccc(-n3ccnc3)cc2)n1 | inconclusive: 17.8 µM [activator, partial curve] | –
CCOC(=O)N1CC=C2C(C#N)=C(N)C(C#N)(C#N)[C@H](c3ccc(OC(C)C)c(OCC)c3)[C@H]2C1 | inconclusive: 2.51 µM [activator, partial curve, poor fit] | –
O=c1c(-c2ccnn2-c2ccccc2F)cnc2n1CCS2 | inconclusive: 7.08 µM [activator, full curve, poor fit] | –
O=C1CC(c2cccs2)Sc2nc3ccccc3n21 (configuration not stated) | inconclusive: 7.94 µM [activator, partial curve] | –
O=C(NCC1CCCO1)C1CCCCN1S(=O)(=O)c1ccc(F)cc1 (configuration not stated) | inconclusive: 0.158 µM [activator, full curve] | –
C/C(=N\NC(=O)c1ccccc1)c1ccc(N2CCCCC2)cc1 | inconclusive: 10 µM [activator, partial curve, poor fit] | –
CCOC(=O)c1c(C)[nH]c2c1-c1ccccc1C(=O)C2=O | – | inactive: -106%
Cc1nc2c(C(=O)N3CCCCC3)cnn2c(C)c1Cc1ccccc1F | inconclusive: 12.6 µM [activator, single point] | –
Cn1cc(SCC(=O)N2CCOCC2)c2ccccc21 | – | inactive: 22.3%
CC(=O)CCC(=O)c1ccc2ccccc2c1 | inconclusive: 31.6 µM [activator, single point] | –

Compound | Potency | activity change, positive = activation
C=C(Br)CN1CCN(CC(=C)Br)CC1 | inconclusive: 2.24 µM [activator, partial curve, poor fit] | –
COc1ccc(CCNC(=O)c2ccc3c(c2)CCN3S(=O)(=O)c2ccccc2)cc1 | – | inactive: -37.8%
C/C(=N\NC(=O)c1ccc(NS(=O)(=O)c2cccs2)cc1)c1ccc(C(C)(C)C)cc1 | – | inconclusive: 34.3% [activator]
COCC(=O)N1CCC2(CC1)CCN(c1ccc(-c3ccccc3)cc1)CC2 | – | inactive: -25.4%
Brc1ccccc1OCCOc1cccc2cccnc12 | inconclusive: 11.2 µM [activator, partial curve, poor fit] | –
Cc1ccc(NC(=O)n2ccc(-c3ccc(-n4ccnc4)cc3)n2)cc1 | active: 12.6 µM | –
CC(/C=C/c1ccc(N(C)C)cc1)=N/N=C1/NC(=O)CC(C(=O)Nc2ccc(Cl)cc2)S1 (configuration not stated) | inconclusive: 31.6 µM [activator, single point] | –
Cc1sc(NC(=S)NC(=O)C2CCCCC2)c(C(N)=O)c1C | inconclusive: 1.12 µM [activator, full curve, poor fit] | –
CN(C(=O)COc1cccc(Br)c1)C1CCS(=O)(=O)C1 (configuration not stated) | inconclusive: 35.5 µM [activator, single point] | –
C/C(=N\NC(=S)NCc1ccccc1)c1ccc2ccccc2c1 | inconclusive: 20 µM [activator, single point] | –
Cc1cccc(/N=C/c2c(O)ccc3oc4c(c23)CCCC4)n1 | inconclusive: 1.12 µM [activator, full curve, poor fit] | –
Cc1ccc(-c2cc(C(=O)NCc3ccccn3)no2)cc1 | active: 28.2 µM | –
CCn1c(SCc2c(F)cccc2Cl)nnc1-c1ccco1 | inconclusive: 6.31 µM [activator, partial curve] | –
COc1ccc(OCC(=O)Nc2ccc(-c3nc4cc(Cl)ccc4o3)cc2)cc1 | inconclusive: 2.24 µM [activator, partial curve] | –
O=c1cc(-c2ccccc2O)oc2cc(O)ccc12 | active: 25.1 µM | –
CC(C)(C)c1ccc(C(=O)Nc2ccc(Cl)cc2)cc1 | active: 3.55 µM | –
CCCCCCCCCC[n+]1cccc(C(=O)N(CC)CC)c1 | inconclusive: 31.6 µM [activator, single point] | –
CC(C)(C)c1ccc(OCC(=O)Nc2ccc(C(=O)OC3CCCCC3)cc2)cc1 | – | inactive: -2.9%
Cc1cccc(C)c1OCCSc1n[nH]c(N)n1 | – | inactive: -1.19%
CN1C(=O)CC(P(=O)(c2ccccc2)c2ccccc2)N(C)C1=O (configuration not stated) | inconclusive: 0.0032 µM [activator, full curve, poor fit] | –
Cc1cc(NC(=O)CCSc2ccccc2)ccc1Br | inconclusive: 12.6 µM [activator, single point] | –
CC1=C(C(=O)Nc2cccnc2)C(c2cccnc2)n2ncnc2N1 (configuration not stated) | inconclusive: 2.24 µM [activator, single point] | –
COc1ccc(-c2csc(N)n2)cc1F | inconclusive: 14.1 µM [activator, partial curve] | –
Oc1ccccc1-c1nc2cnccn2c1Nc1ccc2c(c1)OCCO2 | – | inactive: 17.2%

Compound | Potency | activity change, positive = activation
COc1ccc(OC)c(-c2noc(CSc3nnc(-c4ccccc4)n3-c3ccccc3)n2)c1 | – | inactive: 1.08%
COc1ccc(C(C)=O)cc1COC(=O)CNC(=O)c1ccc(Cl)cc1 | inconclusive: 0.891 µM [activator, full curve, poor fit] | –
CC(C)(C)SCCNC(=O)c1ccc(NS(C)(=O)=O)cc1 | inconclusive: 3.16 µM [activator, full curve, poor fit] | –
CCOC(=O)c1cnc(SCC(=O)N2CCc3ccccc32)nc1N | inconclusive: 2.82 µM [activator, partial curve, poor fit] | –
CCN(CC)S(=O)(=O)c1cc(C(=O)Oc2cccc(-c3cnc4ccccc4n3)c2)ccc1OC | active: 12.6 µM | –
CCOC(=O)c1sc(NC(=O)C2CC=CCC2C(=O)O)nc1C (configuration not stated) | inconclusive: 12.6 µM [activator, partial curve] | –
CCOc1ccc(Nc2nc3c(c(=O)[nH]2)CCCC3)cc1 | inconclusive: 0.199 µM [activator, partial curve] | –
CC(=O)c1c(C)nc2nc(-c3ccccc3)nn2c1C | – | inconclusive: 83.8% [activator]
CN(C(=O)COc1cc(=O)n(C)c2ccccc12)c1ccc(Br)cc1 | inconclusive: 15.8 µM [activator, partial curve, poor fit] | –
CCOC(=O)c1sc(NC(=O)Nc2ccc(Cl)cc2)nc1C | inconclusive: 0.794 µM [activator, full curve, poor fit] | –
O=C(c1ccco1)N1CCN(Cc2nc3ccc([N+](=O)[O-])cc3c(=O)n2-c2ccccc2F)CC1 | – | inactive: -1.89%
Cc1ccc(Nc2nc(-c3sc(NC(=O)c4ccco4)nc3C)cs2)cc1 | – | inactive: -60.5%
CCN1CCN(CCCNC(=O)c2cc3c(=O)n(C)c4ccccc4c3s2)CC1 | inconclusive: 4.47 µM [activator, single point] | –
CCc1ccccc1NC(=O)Cn1c(=O)n(Cc2ccc3c(c2)OCO3)c(=O)c2ccc(C(=O)NC3CCCCC3)cc21 | – | inactive: 0.531%
O=C(NC1CCCCCCC1)c1cc(F)c(F)cc1Cl | inconclusive: 12.6 µM [activator, partial curve] | –
CCCOc1ccc(N2C(=O)C3ON(c4ccccc4)C(CCC)C3C2=O)cc1 (configuration not stated) | – | inactive: 4.07%
CSc1cccc(NC(=O)CCCOc2ccccc2)c1 | inconclusive: 0.178 µM [activator, full curve, poor fit] | –
Cc1cc([N+](=O)[O-])ccc1NC(=O)c1cccc(NC(=O)C(C)C)c1 | inconclusive: 20 µM [activator, partial curve, poor fit] | –
CCCC(=O)Nc1ccc(N2CCCCC2)cc1 | inconclusive: 11.2 µM [activator, partial curve] | –
CC1=CS(=O)(=O)CC1Sc1nc2ccccc2[nH]1 (configuration not stated) | inconclusive: 0.112 µM [activator, full curve, poor fit] | –
O=C(CSc1c2c(nc3ccc(Cl)cc13)CCCC2)N1CCN(c2cccc(Cl)c2)CC1 | – | inactive: -46.6%
O=C1CCCC(O)=C1N=Nc1cccc(C(=O)O)c1 | inconclusive: 17.8 µM [activator, partial curve, poor fit] | –
CCOC(=O)c1c(C)n(C)c2ccc(O)c(CN(C)C)c12 | – | inactive: -0.687%
CCCC(=O)Nc1ccc(NC(=O)c2cccc(OC)c2)nc1 | – | inconclusive: 35.1% [activator]
